Source: US20240350630A1 (AstraZeneca / MedImmune, published 2024)

B1: 7A8.11 Full-length CAR (other)
chain: EVQLVESGGGLVQPGGSLRLSCEASGFTFSSFWMNWVRQAPGKGLEWVANIKEDGSEKYYVDSVKGRFTISRDNAKNSLYLQMNSLRVEDTAVYYCARALDYYGMDVWGQGTTVTVSSGGGGSGGGGSGGGGSGGGGSYIVMTQTPLSLPVTPGEPASISCRSSQSLLDSDDGNTYLDWYLQKPGQSPQLLIYTLSYRASGVPDRFSGSGSGTDFTLKISRVEAEDVGVYYCMQRIEFPSYTFGQGTKLEIKESKYGPPCPSCPFWVLVVVGGVLACYSLLVTVAFIIFWVKRGRKKLLYIFKQPFMRPVQTTQEEDGCSCRFPEEEEGGCEL[not shown - about 120 residues]
notes: Chimeric antigen receptor on the surface of primary T cells or TREX cells; also called 7A8.11 CAR; 7a8.11 clone
B2: I09 (other)
chain: EVQLVESGGGLVKPGGSLRLSCAASGFTFSSYSMNWVRQAPGKGLEWVSSISGSSNYIYYADSVKGRFTISRDNAKNSLYLQMNSLRAEDTAVYYCARGGNYFVEYFQQWGQGTLVTVSSGGGGSGGGGSGGGGSGGGGSEIVLTQSPGTLSLSPGERATLSCRASQYISSNYLAWYQQKPGQAPRLLIYGASNRATGIPDRFSGSGSGTDFTLTISRLEPEDFAVYYCQQYSSDPITFGQGTKLEIKESKYGPPCPSCPFWVLVVVGGVLACYSLLVTVAFIIFWVKRGRKKLLYIFKQPFMRPVQTTQEEDGCSCRFPEEEEGGCEL[not shown - about 120 residues]
notes: Anti-BCMA CAR on primary T cells; also called I09 CAR-T
B3: 20H10.1 (other)
chain: QVQLLQSGAEVKKPGASVKVSCKASGYTFTNYYMYWVRQAPGQGLEWMGIINPGGGGTSYAQMFQGRVTMTRDTSTSTVYMELSSLRSEDTAVYYCASPLWVVTAPYYWGQGTLVTVSSGGGGSGGGGSGGGGSGGGGSQPVLTQPPSASASLGASVTLTCTLSSGYSNYKVDWYQQRPGKGPRFVMRVGTGGIVGSKGDGIPDRFSVLGSGLNRYLTIKNIQEEDESDYHCGADHGSGSNFVYVFGTGTKVTVLESKYGPPCPSCPFWVLVVVGGVLACYSLLVTVAFIIFWVKRGRKKLLYIFKQPFMRPVQTTQEEDGCSCRFPEEEEGGCEL[not shown - about 120 residues]
notes: Anti-BCMA CAR on primary T cells; also called 20H10.1 CAR-T
B4: 16C6.6 (other)
CAR chain: QVQLQESGPGLVKPSETLSLTCTVSGGSSSSYYWSWIRQSPGKGLELIGYIYYSGNTNYNPSLKSRVTISVDTSKKQFSLKLSSVTAADTAVYYCARGGYYDSSGYYLDAFDIWGQGTMVTVSSGGGGSGGGGSGGGGSGGGGSQPVLTQPPSASASLGASVTLTCTLSSGYSNYKVDWYQQRPGKGPRFVMRVGTGGIVGSKGDGIPDRFSVLGSGLNRYLTIKNIQEEDESDYHCGADHGSGSNFVYVFGGGTKLTVLESKYGPPCPSCPFWVLVVVGGVLACYSLLVTVAFIIFWVKRGRKKLLYIFKQPFMRPVQTTQEEDGCSCRFPEEEEGGCEL[not shown - about 120 residues]
notes: Anti-BCMA CAR on primary T cells; also called 16C6.6 Full-length CAR; 16C6.6 CAR-T

Target: T1, rBCMA conjugated with AF647 (UniProt Q02223 1-54, limits assumed, AF647 fluorophore conjugated, site not stated)
T1 construct: also called BCMA-AF647; recombinant BCMA protein labelled with AF647
T1 sequence (looked up): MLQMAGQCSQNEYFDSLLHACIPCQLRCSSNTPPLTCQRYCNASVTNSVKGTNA
Experiment: flow cytometry of primary T cells transduced with the CAR, stained with labelled recombinant BCMA (sheet: rBCMA-APC, APC-A; text: BCMA-AF647 at 1 ug/ml); untransduced T cells (UT) give 0.61 in the same gate
Description: CAR-T cells were labelled with rBCMA conjugated with AF647 (BCMA-AF647) at 1 ug/ml, and fluorescence intensity was measured using flow cytometry. FIG. 3.

Row | Binder | % BCMA CAR+ cells [%]
1 | B1 | 99.9
2 | B2 | 99.6
3 | B3 | 93.4
4 | B4 | 99.8
